Laboratory results taken from PMC11490888.
These are yes or no findings as the source states them, for the method shown. In cells and extracts the contact can be indirect. Some entries that bind do so weakly or less than the wild type.

Sequences of proteins named here, by UniProt entry; tags and fusion partners are left off.
UniProt P13010: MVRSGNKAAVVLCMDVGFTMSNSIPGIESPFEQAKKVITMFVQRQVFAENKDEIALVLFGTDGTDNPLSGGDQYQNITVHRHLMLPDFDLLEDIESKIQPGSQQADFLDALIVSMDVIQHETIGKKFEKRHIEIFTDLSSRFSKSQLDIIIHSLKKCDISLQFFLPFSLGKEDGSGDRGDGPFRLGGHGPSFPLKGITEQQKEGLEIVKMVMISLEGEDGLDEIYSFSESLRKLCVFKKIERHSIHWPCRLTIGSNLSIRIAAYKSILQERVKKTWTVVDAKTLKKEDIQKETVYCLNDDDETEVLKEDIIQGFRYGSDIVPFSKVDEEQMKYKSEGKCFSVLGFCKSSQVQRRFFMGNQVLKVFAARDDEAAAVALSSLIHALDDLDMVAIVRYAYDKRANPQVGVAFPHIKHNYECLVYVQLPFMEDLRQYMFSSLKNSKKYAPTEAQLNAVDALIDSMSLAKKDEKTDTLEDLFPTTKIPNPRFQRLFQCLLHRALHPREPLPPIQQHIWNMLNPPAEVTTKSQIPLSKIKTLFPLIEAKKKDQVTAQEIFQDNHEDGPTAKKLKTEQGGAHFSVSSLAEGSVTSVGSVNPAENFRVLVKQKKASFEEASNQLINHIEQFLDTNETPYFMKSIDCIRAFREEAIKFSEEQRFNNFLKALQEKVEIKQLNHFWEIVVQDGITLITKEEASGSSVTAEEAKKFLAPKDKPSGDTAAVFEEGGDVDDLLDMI
UniProt Q13426: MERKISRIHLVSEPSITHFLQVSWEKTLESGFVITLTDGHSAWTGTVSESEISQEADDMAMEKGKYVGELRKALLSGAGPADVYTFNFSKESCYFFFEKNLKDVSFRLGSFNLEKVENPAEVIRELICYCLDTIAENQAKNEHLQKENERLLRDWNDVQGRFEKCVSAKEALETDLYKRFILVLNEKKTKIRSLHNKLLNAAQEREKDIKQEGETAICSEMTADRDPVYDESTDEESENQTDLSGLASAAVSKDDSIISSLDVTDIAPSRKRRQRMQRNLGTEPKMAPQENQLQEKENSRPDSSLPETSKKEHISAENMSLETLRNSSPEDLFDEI
UniProt P09874: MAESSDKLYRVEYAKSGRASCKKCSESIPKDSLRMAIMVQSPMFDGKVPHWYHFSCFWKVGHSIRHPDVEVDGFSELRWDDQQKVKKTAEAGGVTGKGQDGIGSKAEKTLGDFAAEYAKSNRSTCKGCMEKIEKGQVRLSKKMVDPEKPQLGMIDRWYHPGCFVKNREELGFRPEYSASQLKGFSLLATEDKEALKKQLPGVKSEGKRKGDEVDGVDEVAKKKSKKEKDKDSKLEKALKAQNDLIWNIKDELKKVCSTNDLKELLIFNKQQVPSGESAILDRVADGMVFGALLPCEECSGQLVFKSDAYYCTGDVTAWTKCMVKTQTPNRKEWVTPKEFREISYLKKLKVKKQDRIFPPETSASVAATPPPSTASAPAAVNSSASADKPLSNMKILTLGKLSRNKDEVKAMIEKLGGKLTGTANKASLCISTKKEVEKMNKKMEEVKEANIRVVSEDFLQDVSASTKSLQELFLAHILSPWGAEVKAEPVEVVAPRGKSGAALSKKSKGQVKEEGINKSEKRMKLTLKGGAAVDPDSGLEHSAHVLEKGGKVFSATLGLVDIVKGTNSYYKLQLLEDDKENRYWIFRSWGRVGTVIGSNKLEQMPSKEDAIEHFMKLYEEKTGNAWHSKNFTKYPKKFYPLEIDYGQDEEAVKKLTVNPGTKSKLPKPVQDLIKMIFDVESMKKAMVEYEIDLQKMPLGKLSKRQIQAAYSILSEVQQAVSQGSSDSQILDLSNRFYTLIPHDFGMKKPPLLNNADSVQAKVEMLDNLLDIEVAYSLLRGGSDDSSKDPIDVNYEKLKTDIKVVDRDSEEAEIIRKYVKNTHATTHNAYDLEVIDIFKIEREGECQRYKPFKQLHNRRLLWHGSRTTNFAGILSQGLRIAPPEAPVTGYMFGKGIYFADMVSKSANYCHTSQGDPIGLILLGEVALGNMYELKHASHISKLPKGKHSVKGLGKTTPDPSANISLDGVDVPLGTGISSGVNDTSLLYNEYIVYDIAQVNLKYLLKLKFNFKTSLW
UniProt P78527: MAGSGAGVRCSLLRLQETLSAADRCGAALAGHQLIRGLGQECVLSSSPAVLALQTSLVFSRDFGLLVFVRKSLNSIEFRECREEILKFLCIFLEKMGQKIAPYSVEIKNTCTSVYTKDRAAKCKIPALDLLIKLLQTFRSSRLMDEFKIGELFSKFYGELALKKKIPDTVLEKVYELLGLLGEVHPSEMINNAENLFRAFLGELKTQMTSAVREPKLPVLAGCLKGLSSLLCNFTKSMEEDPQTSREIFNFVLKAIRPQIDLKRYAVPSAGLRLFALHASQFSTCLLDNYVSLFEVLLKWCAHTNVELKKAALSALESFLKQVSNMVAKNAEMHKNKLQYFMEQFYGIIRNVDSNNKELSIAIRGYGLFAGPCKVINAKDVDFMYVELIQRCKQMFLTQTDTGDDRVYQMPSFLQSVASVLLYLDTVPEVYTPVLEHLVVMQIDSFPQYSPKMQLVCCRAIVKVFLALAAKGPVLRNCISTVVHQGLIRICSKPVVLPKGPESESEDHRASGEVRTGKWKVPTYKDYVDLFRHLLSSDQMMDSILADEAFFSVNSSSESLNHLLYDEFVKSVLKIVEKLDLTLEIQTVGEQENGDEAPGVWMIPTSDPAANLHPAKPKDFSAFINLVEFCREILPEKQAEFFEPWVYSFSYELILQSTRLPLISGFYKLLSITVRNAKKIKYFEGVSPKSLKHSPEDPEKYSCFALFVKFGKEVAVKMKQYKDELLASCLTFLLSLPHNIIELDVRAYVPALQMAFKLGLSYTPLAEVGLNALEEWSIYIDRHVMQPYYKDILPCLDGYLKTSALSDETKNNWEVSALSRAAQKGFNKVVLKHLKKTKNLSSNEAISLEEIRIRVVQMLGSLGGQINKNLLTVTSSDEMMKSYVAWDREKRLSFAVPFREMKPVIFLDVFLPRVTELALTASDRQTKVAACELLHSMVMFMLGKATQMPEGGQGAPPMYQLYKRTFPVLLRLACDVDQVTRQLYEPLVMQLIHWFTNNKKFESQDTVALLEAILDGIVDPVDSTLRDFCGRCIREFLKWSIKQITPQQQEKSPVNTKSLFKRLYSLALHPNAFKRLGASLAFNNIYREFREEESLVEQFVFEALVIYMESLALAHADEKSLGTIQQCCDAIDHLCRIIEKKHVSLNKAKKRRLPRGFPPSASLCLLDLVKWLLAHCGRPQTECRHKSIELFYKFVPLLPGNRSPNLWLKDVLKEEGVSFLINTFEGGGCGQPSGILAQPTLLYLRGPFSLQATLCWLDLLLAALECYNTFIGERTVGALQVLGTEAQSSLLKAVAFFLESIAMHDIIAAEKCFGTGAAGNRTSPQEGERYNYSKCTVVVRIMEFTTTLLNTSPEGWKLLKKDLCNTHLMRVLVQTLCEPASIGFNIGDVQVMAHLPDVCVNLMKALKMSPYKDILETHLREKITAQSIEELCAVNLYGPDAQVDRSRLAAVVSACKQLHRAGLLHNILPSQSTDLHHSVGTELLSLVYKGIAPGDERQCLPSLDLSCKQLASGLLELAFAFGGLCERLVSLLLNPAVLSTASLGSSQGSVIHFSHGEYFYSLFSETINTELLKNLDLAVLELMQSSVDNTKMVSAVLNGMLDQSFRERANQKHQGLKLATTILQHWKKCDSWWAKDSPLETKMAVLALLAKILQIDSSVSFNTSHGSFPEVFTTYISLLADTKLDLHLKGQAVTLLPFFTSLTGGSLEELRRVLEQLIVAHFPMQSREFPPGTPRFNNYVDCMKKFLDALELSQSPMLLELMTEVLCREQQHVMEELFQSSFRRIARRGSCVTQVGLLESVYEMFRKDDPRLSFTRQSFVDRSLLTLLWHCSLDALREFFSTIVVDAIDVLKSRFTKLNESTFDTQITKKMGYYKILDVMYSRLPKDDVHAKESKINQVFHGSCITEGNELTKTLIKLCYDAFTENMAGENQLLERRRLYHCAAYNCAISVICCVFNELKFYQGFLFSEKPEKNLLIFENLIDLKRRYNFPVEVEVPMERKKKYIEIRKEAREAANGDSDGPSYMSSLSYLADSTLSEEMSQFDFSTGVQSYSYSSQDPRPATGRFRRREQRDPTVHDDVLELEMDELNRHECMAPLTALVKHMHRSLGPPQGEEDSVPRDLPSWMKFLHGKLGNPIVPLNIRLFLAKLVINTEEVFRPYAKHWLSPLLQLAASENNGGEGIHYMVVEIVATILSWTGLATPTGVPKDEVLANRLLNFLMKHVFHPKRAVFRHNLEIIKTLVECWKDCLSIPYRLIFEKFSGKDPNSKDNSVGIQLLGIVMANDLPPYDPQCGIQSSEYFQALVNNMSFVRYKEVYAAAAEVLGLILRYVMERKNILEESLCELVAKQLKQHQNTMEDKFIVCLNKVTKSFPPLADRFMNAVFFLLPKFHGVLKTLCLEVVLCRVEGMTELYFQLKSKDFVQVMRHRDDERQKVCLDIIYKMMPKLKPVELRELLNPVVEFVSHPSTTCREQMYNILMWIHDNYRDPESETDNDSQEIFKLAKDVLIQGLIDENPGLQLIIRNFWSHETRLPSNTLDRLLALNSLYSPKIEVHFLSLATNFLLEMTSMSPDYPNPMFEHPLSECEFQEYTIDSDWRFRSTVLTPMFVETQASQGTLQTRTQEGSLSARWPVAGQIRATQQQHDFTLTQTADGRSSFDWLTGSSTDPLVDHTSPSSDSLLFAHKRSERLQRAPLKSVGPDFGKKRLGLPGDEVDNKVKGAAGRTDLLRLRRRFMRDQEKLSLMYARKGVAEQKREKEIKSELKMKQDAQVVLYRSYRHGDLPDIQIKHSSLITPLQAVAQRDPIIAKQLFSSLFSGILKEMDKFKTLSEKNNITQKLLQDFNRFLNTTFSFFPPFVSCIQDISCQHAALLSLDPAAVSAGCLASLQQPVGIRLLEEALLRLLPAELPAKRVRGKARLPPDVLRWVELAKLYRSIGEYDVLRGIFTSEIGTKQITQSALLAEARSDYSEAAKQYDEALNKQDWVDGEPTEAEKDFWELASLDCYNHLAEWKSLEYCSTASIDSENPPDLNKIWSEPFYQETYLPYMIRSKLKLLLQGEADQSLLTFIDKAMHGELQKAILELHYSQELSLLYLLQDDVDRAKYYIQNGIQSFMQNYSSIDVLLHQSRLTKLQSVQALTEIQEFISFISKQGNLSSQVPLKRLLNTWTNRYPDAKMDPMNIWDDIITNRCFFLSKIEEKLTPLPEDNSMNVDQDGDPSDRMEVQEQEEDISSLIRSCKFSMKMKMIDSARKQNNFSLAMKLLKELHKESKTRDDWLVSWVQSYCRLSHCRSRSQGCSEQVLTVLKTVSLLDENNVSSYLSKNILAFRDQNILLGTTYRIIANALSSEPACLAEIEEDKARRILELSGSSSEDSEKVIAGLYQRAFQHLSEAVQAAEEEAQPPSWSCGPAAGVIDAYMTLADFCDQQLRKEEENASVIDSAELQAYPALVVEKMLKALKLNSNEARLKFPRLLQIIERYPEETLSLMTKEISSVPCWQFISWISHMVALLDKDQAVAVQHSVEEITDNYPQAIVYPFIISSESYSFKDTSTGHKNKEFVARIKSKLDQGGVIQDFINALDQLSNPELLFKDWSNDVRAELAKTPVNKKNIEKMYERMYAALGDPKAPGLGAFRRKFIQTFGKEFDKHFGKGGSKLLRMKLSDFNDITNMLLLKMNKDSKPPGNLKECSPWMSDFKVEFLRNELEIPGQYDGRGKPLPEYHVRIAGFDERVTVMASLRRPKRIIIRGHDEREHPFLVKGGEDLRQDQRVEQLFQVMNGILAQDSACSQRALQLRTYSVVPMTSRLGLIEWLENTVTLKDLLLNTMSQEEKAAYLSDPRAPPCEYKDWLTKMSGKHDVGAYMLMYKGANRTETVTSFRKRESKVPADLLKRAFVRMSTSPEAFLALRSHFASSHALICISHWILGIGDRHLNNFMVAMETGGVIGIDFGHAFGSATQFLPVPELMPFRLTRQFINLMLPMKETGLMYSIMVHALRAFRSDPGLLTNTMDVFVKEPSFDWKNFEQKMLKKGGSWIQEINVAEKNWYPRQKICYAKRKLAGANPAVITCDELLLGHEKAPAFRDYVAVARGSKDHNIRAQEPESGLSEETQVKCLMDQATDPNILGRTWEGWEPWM

How the values were obtained:
[1] = target: T1, Transcriptional repressor GATA binding 1 (TRPS1) (human (endogenous in MCF7 and T47D)) (UniProt Q9UHF7); assay: co-IP; endogenous proteins in MCF7 and T47D lysates; Protein G beads conjugated with anti-TRPS1 antibody, control IgG; washes in 50 mM Tris-HCl pH 7.5, 150 mM NaCl, 1% Triton X-100, 1 mM EDTA; cells untreated or challenged with 5 μM ADR for 2 h and chased, or DMSO, or treated with AG14361 for 24 h; lysates with or without Deoxyribonuclease I
T1 sequence: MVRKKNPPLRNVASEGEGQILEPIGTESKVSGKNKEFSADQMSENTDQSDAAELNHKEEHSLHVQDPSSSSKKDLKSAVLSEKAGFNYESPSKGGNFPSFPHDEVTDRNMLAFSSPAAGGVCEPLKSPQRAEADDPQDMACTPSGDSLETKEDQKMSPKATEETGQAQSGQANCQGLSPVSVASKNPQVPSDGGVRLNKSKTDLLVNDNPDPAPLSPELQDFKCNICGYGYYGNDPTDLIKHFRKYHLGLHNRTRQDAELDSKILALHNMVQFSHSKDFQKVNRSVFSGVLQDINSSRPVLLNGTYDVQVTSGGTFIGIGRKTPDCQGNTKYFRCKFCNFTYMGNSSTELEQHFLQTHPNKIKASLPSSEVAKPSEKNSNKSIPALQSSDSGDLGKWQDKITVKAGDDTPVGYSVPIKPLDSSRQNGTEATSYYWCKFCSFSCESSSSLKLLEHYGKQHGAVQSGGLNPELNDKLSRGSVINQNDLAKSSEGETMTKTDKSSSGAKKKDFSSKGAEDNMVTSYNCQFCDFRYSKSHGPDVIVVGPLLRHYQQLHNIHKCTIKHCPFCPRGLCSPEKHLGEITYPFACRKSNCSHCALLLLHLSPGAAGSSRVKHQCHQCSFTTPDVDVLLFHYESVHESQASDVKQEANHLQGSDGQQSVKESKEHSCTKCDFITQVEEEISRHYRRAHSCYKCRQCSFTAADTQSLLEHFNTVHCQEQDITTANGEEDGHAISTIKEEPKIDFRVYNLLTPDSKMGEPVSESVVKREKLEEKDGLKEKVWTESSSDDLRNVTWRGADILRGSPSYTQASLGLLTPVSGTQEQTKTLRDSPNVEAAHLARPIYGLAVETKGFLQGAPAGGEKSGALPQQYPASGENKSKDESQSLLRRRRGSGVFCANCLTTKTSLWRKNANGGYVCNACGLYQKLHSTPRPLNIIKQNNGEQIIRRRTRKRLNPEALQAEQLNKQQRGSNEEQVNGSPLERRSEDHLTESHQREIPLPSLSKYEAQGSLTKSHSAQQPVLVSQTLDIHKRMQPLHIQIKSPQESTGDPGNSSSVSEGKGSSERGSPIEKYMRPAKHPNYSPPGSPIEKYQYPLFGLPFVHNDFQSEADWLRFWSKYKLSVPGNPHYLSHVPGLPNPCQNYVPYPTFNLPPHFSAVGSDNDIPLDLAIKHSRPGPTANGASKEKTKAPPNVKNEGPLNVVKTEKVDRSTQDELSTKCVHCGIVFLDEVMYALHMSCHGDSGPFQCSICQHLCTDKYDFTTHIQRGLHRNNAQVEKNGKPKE

[2] = target: T1, Transcriptional repressor GATA binding 1 (TRPS1) (human (endogenous in MCF7 and T47D)); assay: co-IP; screen: proteins co-immunoprecipitated with TRPS1, list in Dataset S1, used for GO and KEGG enrichment analysis; how the proteins were identified, the cells and the bait's form are not told

Substance	binding [1]	binding [2]
Ku80 (from UniProt P13010 1-732)	binds	binds
XRCC4 (from UniProt Q13426 1-336)	no binding	
Poly [ADP-ribose] polymerase 1 (PARP1) (from UniProt P09874 1-1014) (enzyme)	binds	binds

More lines, now with the values ahead:

binding [1]	binding [2]	Substance
binds	binds	Ku70 (from UniProt P12956 1-609)
no binding		DNA-PKcs (from UniProt P78527 1-4128) (enzyme)
